# Experimental data reported in PubChem BioAssay AID1347073 (National Center for Advancing Translational Sciences (NCATS), 2019).
# The campaign covered roughly 45,000 compounds. About 200 (0.44%) were called active. Roughly 7% stayed inconclusive and do not appear here. The call rests on the fitted dose curve; in most records, active means well fitted activation curve with a large enough effect; inconclusive means small, poorly fitted or top-dose-only effect; inactive means no such curve, though single readings can be large or run the other way. The list shows a part of the results.
# Experiment: qHTS of TDP-43 Inhibitors: NCGC Sytravon Library Screen; further: 0% is about no effect; nearly all actives have a fitted effect of over 55% in size
# Settings: yeast TDP-43 toxicity rescue, BacTiter-Glo growth, 24 h; series mostly up to 46.1 µM; growth rescue (activation): at the top concentration
# Outline: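 TDP-43-expressing yeast, pregrown in raffinose, seeded at OD600 0.02 in galactose medium with compound for 24 hr at 30 deg C. Growth read by BacTiter-Glo luminescence, so rescue of toxicity appears as activation.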
row,Structure (SMILES),growth rescue (activation)
1,COCCCNC(=O)c1cccc2c(=O)c(C)c(-c3ccccc3)oc12,inactive: -0.28%
2,CC1CCCCN1C(=O)CSc1nnc2c(n1)[nH]c1ccc(F)cc12 (centres undefined),inactive: -1.54%
3,O=C(Oc1ccccc1)c1ccc(NC(=O)c2ccco2)cc1,inactive: -2.91%
4,CCn1c(SCC(=O)NNC(=O)c2ccc(C)cc2)nnc1-c1ccco1,inactive: -4.65%
5,C=CCn1c(O)c(N=NC(=O)c2ccccc2NS(=O)(=O)c2cccs2)c2ccccc21,inactive: -21%
6,CCN(CC)S(=O)(=O)c1ccc2[nH]cc(C(=O)NCCC3=CCCCC3)c(=O)c2c1,inactive: 18.2%
7,COc1ccc(NS(=O)(=O)c2ccc(NC(=O)c3ccccc3Br)cc2)nn1,inactive: 5.27%
8,C#CCN1C(=O)C(O)(c2c(C)[nH]c3ccccc23)c2ccccc21 (centres undefined),inactive: -0.668%
9,CN(C)c1ccc(-c2nnc(SCC3CCCO3)n2C)cc1 (centres undefined),inactive: 2.67%
10,CC1(Cc2cccc(C(N)=O)c2)C(=O)Nc2c(Cl)cccc21 (centres undefined),inactive: -1.35%
11,O=C(NCc1ccncc1)c1csc([C@@H]2O[C@H](CO)[C@@H](O)[C@H]2O)n1,inactive: 10.8%
12,C/C(=N\NC(=O)c1ccc(N2CCCC2=O)cc1)c1ccccc1,inactive: 9.12%
13,CC(C)(C)NCc1cc(Cl)ccc1OCc1cccs1,inactive: -3.22%
14,CCOCCCNC(=O)c1ccc2c(c1)ncn2-c1ccccc1OC,inactive: -0.714%
15,CC1(C(=O)NS(=O)(=O)c2ccccc2)CCN1C(=O)c1ccc(C2CCCCC2)cc1 (centres undefined),inactive: 0.475%
16,COc1ccccc1NC(=O)Cc1nnc(SCC(=O)Nc2ccc(F)cc2F)n1C,inactive: 14.6%
17,Cc1ccc(CN2CCN(Cc3ccc4cc(F)ccc4n3)CC2CCO)o1 (centres undefined),inactive: -4.77%
18,Cc1nc2cc(OC3(C)CCN(Cc4ccc(OC(F)(F)F)cc4)C3)ccc2s1 (centres undefined),inactive: 10.5%
19,Cc1nnc(SCC(=O)N2CCN(c3ccccc3F)CC2)n1C1CC1,inactive: 5.09%
20,O=C(Nc1ccccc1N1CCOCC1)c1ccc(N2CCOCC2)c([N+](=O)[O-])c1,inactive: 13.1%
21,O=C(CNC(=O)c1ccc(N2C(=O)c3ccccc3C2=O)cc1)OCC(=O)c1cccc2ccccc12,inactive: 7.63%
22,Cc1cc(C)c(S(C)(=O)=O)c(S(=O)c2ccc(Cl)cc2)n1 (centres undefined),inactive: 16.8%
23,CCCCN1CCCCC1(C)C(=O)NCc1cccc(OC)c1 (centres undefined),inactive: -4.82%
24,C/C(=N\NC(=O)c1ccc(N2CCCC2=O)cc1)c1ccncc1,inactive: -16.4%
25,CC1=NOC(=O)/C1=C/c1ccc(O)c(Br)c1,inactive: -9.48%
26,CS(=O)(=O)c1ccc(Cl)c(NC(=O)CN2CCN(C(=O)c3cccs3)CC2)c1,inactive: 1.18%
27,O=C(NC(=S)N1CCc2ccccc21)c1ccco1,inactive: 5.75%

row,Structure (SMILES),growth rescue (activation)
1,O=C1CN(Cc2ccccc2)CC(=O)N1,inactive: 1.17%
2,CCOC(=O)C(=O)Nc1cccc(C(=O)OCC)c1,inactive: 4.31%
3,CCOC(=O)C1C(CC)NC(=S)NC1(C)O (centres undefined),inactive: 4.73%
4,COc1cc(/C=C2\NC(=S)N(C)C2=O)ccc1O,inactive: 13.2%
5,O=C(NCc1cccnc1)C(=O)Nc1nc(C23CC4CC(CC(C4)C2)C3)cs1,inactive: -12.5%
6,C[C@]12CC[C@H](O)CC1=CCC1C2CC[C@@]2(C)C1CCC21OCCO1 (some centres undefined),inactive: 0.614%
7,CCCCn1c(N2CCCC2)nc2c1c(=O)[nH]c(=O)n2C,inactive: -7.11%
8,CC(C)c1ccccc1-n1c(SCC(=O)N2CCN(c3ccccc3)CC2)nnc1-c1cccnc1,inactive: 8.26%
9,Cc1ccccc1C(=O)Nc1cccc(NC(=O)c2cccnc2)c1,inactive: 2.95%
10,Brc1ccc(OCc2ccccc2)c(CNCC2CCCO2)c1 (centres undefined),inactive: -8.03%
11,CN(C(=O)c1cnc(N2CCN(c3ncccn3)CC2)c2ccccc12)c1ccc(Cl)cc1,inactive: 24.5%
12,COC(=O)CN1C(=S)N(c2ccc(OC)cc2)C(=O)/C1=C/c1cccs1,inactive: -5.35%
13,Cc1cccc(C)c1NC(=O)CSc1nnc(-c2ccco2)c(-c2ccco2)n1,inactive: 32.2%
14,Cc1cc(C(=O)N2CCN(S(=O)(=O)c3ccccc3C#N)CC2)c(C)o1,inactive: 25.2%
15,CCCn1c(SCC(=O)Nc2nc(-c3ccc(OC)cc3)cs2)nc2c1c(=O)n(C)c(=O)n2C,inactive: -21.8%
16,COc1ccccc1NC(=O)NC1(C(=O)NCC2CCCO2)CCCCC1 (centres undefined),inactive: 1.8%
17,O=C(Nc1nc2ccccc2s1)c1cc(-c2ccco2)nc2ccccc12,inactive: 8.01%
18,COc1cccc(-c2cnc(C(O)c3cc(C)cc(C)c3)[nH]2)c1 (centres undefined),inactive: 7.07%
19,O=C(NCC1CCCO1)C1CCCN(S(=O)(=O)c2cccc(C(F)(F)F)c2)C1 (centres undefined),inactive: 11.3%
20,O=C(CCCN1C(=O)/C(=C\c2cccs2)SC1=S)Nc1cc([N+](=O)[O-])ccc1O,inactive: 10.3%
21,CCCCc1ccc(NC(=S)NCc2cccc(OC)c2)cc1,inactive: 14.9%
22,CCCOc1ccc(C(C)=O)cc1Cc1c(O)nc(SC)[nH]c1=O,inactive: -2.04%
23,O=C(CSc1n[nH]c(-c2cc(Cl)ccc2Cl)n1)NCCN1C(=O)CSC1=O,inactive: -3.63%
24,CCOc1ccc(NC(=O)Cn2nnc(-c3nc(-c4ccncc4)no3)c2N)cc1,inactive: 11.8%
25,Cc1ccc(NCC(=O)N/N=C/c2cc(O)ccc2[N+](=O)[O-])cc1,inactive: -8.84%
26,COC(=O)c1cccc(NC(=O)CSc2nnc(-c3ccco3)o2)c1,inactive: 1.58%
27,O=C(CCc1nnc(CCCCc2ccccc2)o1)N1CCN(CCO)CC1,inactive: 11.7%
